About 4,000 (1%) of roughly 390,000 compounds were called active. Inconclusive means that the source gave no clear call. Such entries were picked first, then a sample of the others. Calls come from the whole dose curve; as a rule, active = well fitted inhibition curve with a large enough effect; inconclusive = small, poorly fitted or top-dose-only effect; inactive = no such curve, though single readings can be large or run the other way. Where the call is inconclusive, the potency comes from a doubtful curve fit.
target: Thioredoxin reductase 1, cytoplasmic (Rattus norvegicus) (UniProt O89049); experiment: qHTS Assay for Inhibitors of Mammalian Selenoprotein Thioredoxin Reductase 1 (TrxR1): qHTS; settings: recombinant rTrxR1, NADPH fluorescence consumption, selenite substrate; series mostly up to 114 µM; note: nearly all actives have a fitted effect of over 65% in size
UniProt O89049, sequence (O89049 whole entry, looked up): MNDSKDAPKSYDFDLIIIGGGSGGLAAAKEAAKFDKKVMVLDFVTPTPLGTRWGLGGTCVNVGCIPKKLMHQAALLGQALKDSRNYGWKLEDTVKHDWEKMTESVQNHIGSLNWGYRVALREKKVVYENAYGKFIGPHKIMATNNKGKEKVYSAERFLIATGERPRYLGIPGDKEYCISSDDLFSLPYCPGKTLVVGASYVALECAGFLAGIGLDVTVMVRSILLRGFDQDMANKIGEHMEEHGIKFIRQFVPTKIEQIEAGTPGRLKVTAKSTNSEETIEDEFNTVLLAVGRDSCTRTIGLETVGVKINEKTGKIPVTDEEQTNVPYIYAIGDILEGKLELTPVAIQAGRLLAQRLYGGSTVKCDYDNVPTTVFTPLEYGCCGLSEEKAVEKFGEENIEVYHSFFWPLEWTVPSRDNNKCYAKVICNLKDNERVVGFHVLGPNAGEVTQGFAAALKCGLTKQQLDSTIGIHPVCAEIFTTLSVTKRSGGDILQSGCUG
Method in brief: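 Rat TrxR1 (90 nM in the dispensed reagent) was pre-reduced with 400 uM NADPH for 5 min at room temperature, then incubated with compound for 15 min. After 400 uM selenite was added, NADPH fluorescence (Ex 340/Em 450 nm) was followed for 8 min.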
Potency is the fitted concentration of half-maximal effect; tags give direction and shape of the fitted curve.

SMILES | Potency
O=C(Cn1ncc2c([nH]c3ccccc32)c1=O)Nc1cccnc1 | inconclusive: 39.8 µM [inhibitor, single point]
O=C(CSc1nc(-c2ccc(F)cc2)cc(C(F)(F)F)n1)NCCc1ccccc1 | inactive
CO/N=C(\C(=O)N[C@@H]1C(=O)N2C(C(=O)O)=C(COC(N)=O)CS[C@H]12)c1ccco1 | inconclusive: 63.1 µM [inhibitor, partial curve, poor fit]
CCOC(=O)c1cc2c(=O)n3ccccc3nc2n(Cc2ccco2)c1=NC(=O)c1ccc(OCC)cc1 | inconclusive: 50.1 µM [inhibitor, single point]
O=C(CCN1CCOCC1)c1ccc(Cl)cc1 | inconclusive: 1.41 µM [inhibitor, full curve, poor fit]
Nc1ccc(S(=O)(=O)N2CCc3ccccc32)cc1 | inactive
COC(=O)c1ccc(NC2=CC(=O)CC(C)(C)C2)cc1 | inconclusive: 39.8 µM [inhibitor, single point]
Oc1ccc(N=Cc2ccc(OCc3ccccc3)cc2)cc1 | inconclusive: 11.2 µM [inhibitor, full curve]
Cc1ccc(Nc2nc3ccccc3nc2Nc2c(C)n(C)n(-c3ccccc3)c2=O)cc1 | inconclusive: 100 µM [inhibitor, single point]
CC[N+]1(C)CCC(O)(/C=C/c2ccccc2)C(C(=O)/C=C/c2ccccc2)C1 (stereo unspecified) | active: 0.316 µM
Cc1cccc(/C=N/NC(=O)c2cc(-c3cccnc3)nc3c2c(C)nn3-c2ccccc2)c1 | inconclusive: 15.8 µM [inhibitor, partial curve, poor fit]
COc1ccc(C(=O)NCC(=O)N/N=C/c2ccco2)cc1OC | inconclusive: 89.1 µM [inhibitor, single point]
Cc1ccc(NCCC(=O)c2cccs2)cc1Cl | inconclusive: 28.2 µM [inhibitor, partial curve, poor fit]
C=CCOc1ccccc1/C=c1\sc2nc(-c3oc4ccccc4c3C)nn2c1=O | inconclusive: 8.91 µM [inhibitor, full curve]
Cc1ccc(OCC(=O)N(Cc2ccc(N(C)C)cc2)C2CCS(=O)(=O)C2)cc1C (stereo unspecified) | inconclusive: 89.1 µM [inhibitor, partial curve, poor fit]
O=S1(=O)C=C(Sc2nnc(-c3ccccc3)o2)c2ccccc21 | active: 0.398 µM
COc1ccc(C)cc1C(=O)CCC(=O)N1CCN(c2ccccc2F)CC1 | inactive
COc1cc(C(=O)/C=C/c2cccnc2)c([N+](=O)[O-])cc1OC | inconclusive: 50.1 µM [inhibitor, single point]
CC(=O)NCCC(Cc1ccccc1)c1ccco1 (stereo unspecified) | inconclusive: 28.2 µM [inhibitor, partial curve, poor fit]
CC1CCN(C(=O)COC(=O)c2ccc([N+](=O)[O-])o2)CC1 | inconclusive: 63.1 µM [inhibitor, partial curve, poor fit]
COc1ccc(NC(=O)CN2C(=O)C3(SCC(=O)N3c3cccc(OC)c3)c3ccccc32)cc1 (stereo unspecified) | inactive
CC(Sc1nc2c(cc1C#N)CCCCC2)C(=O)O (stereo unspecified) | inconclusive: 79.4 µM [inhibitor, single point]

SMILES | Potency
Cc1cccc(Oc2ccc(S(=O)(=O)N3CCCCC3)cc2N)c1 | inactive
Clc1ccc(CSc2nnc(-c3ccccn3)n2Cc2ccco2)c(Cl)c1 | inconclusive: 44.7 µM [inhibitor, single point]
O=C1c2ccccc2C(=O)N1CCSc1ncn[nH]1 | inactive
Cc1ccc2cc(C(c3nnnn3C3CCCC3)N(Cc3cccnc3)Cc3ccco3)c(=O)[nH]c2c1 (stereo unspecified) | inconclusive: 28.2 µM [inhibitor, single point]
COC(=O)c1ccc(C)cc1C1CN=NC12Cc1cc(C)ccc1C2=O (stereo unspecified) | inconclusive: 56.2 µM [inhibitor, partial curve]
O=C(Cc1ccccc1)NCC(=O)N/N=C/c1ccc([N+](=O)[O-])s1 | inconclusive: 35.5 µM [inhibitor, partial curve]
COc1cc2nc(NC3CCN(C)CC3)nc(N3CCCN(C)CC3)c2cc1OC | inconclusive: 50.1 µM [inhibitor, partial curve]
Cc1nc2c(c(=O)n1CCC1=CCCCC1)c1nc3ccccc3nc1n2/N=C/c1ccco1 | inconclusive: 39.8 µM [inhibitor, partial curve, poor fit]
CC(=O)c1cc(-c2ccccc2)[nH]c1N1CCCC1 | inconclusive: 39.8 µM [inhibitor, single point]
O=C(O)C1C(c2ccccc2)C(C(=O)Oc2ccccc2)C1c1ccccc1 (stereo unspecified) | inconclusive: 44.7 µM [inhibitor, partial curve]
Cc1nc2cc(-c3cccc(F)c3)nn2c(C)c1CCC(=O)NC(C)CCc1ccco1 (stereo unspecified) | inconclusive: 39.8 µM [inhibitor, single point]
CCc1ccc2nc(N3C(=O)C(O)=C(C(=O)c4ccco4)C3c3cccs3)sc2c1 (stereo unspecified) | inconclusive: 56.2 µM [inhibitor, single point]
CCC(C)NC(=O)Cn1c(=O)ccc2cc(S(=O)(=O)N3CCCC3)ccc21 (stereo unspecified) | inactive
O=C(C1CCCO1)N1CCN(C(=S)Nc2cccc(F)c2)CC1 (stereo unspecified) | inactive
CCn1c(SCC(N)=O)nc2sc3c(c2c1=O)CCN(C)C3 | inconclusive: 70.8 µM [inhibitor, partial curve]
Cc1ccc(CCNC(=O)c2ccc(CS(=O)(=O)Cc3ccccc3F)o2)cc1 | inconclusive: 14.1 µM [inhibitor, partial curve]
CC1Cc2ccccc2N1NC(=O)c1ccc(Cl)c(S(N)(=O)=O)c1 (stereo unspecified) | inactive
CC1CCN(C(=O)C(C)OC(=O)c2ccc(S(C)(=O)=O)c([N+](=O)[O-])c2)CC1 (stereo unspecified) | active: 11.2 µM
S=c1[nH]nc(-c2ccncc2)n1Cc1ccco1 | inconclusive: 56.2 µM [inhibitor, single point]
Cc1cccc(Nc2c3c(nc4nncn24)CCC3)c1C | inactive
CCOC(=O)C1CCCN(C(=O)Cn2cccc2C(=O)c2ccccc2)C1 (stereo unspecified) | inactive
CN(C)c1ccc(C(=O)/C=C/c2ccco2)cc1 | inconclusive: 22.4 µM [inhibitor, full curve]

SMILES | Potency
CCOC(=O)c1ccc(N2C(=O)c3n[nH]c(C)c3C2c2ccc(O)cc2)cc1 (stereo unspecified) | inconclusive: 35.5 µM [inhibitor, single point]
Cc1ccc(N(C(=O)CCl)C(C(=O)NC2CCCCC2)c2cccnc2)cc1C (stereo unspecified) | active: 10 µM
Cc1ccc(S/C(=N\S(=O)(=O)c2ccc(Cl)cc2)c2ccccc2)cc1 | inconclusive: 28.2 µM [inhibitor, single point]
COCCCNC(=O)C[C@H]1C[C@H](C(=O)N2CCCCC2)[C@@]2(C)c3[nH]c4cc(-c5ccco5)ccc4c3CCN2C1=O | inconclusive: 70.8 µM [inhibitor, single point]
N=C1/C(=C/c2ccc(-c3cccc(C(=O)O)c3)o2)C(=O)N=C2SC=C(c3ccccc3)N12 | inconclusive: 70.8 µM [inhibitor, single point]
c1coc(Cn2nnnc2CN2CCN(C3CCCC3)CC2)c1 | inconclusive: 28.2 µM [inhibitor, single point]
N#Cc1ccccc1NC(=O)c1cnc(N2CCOCC2)c2ccccc12 | inactive
Cc1ccc(C)c(CN2C(=O)c3ccccc3S(=O)(=O)c3ccc(C(=O)NCc4ccccc4)cc32)c1 | inactive
CCOC(=O)CCc1ccc(NC(=O)/C=C/c2ccc([N+](=O)[O-])o2)cc1 | inconclusive: 3.16 µM [inhibitor, partial curve]
COc1ccc(N2CCN(C(=O)c3cccc(N4C(=O)C5C6C=CC(C6)C5C4=O)c3)CC2)cc1 (stereo unspecified) | inconclusive: 79.4 µM [inhibitor, single point]
O=C(NCc1ccccn1)/C(=C/c1ccco1)NC(=O)c1ccccc1 | inconclusive: 50.1 µM [inhibitor, partial curve]
CCOc1ccc(C(=O)Nc2ccc3oc(-c4cccnc4)nc3c2)cc1 | inconclusive: 89.1 µM [inhibitor, partial curve, poor fit]
N#Cc1ccsc1NC(=O)C1CCN(C(=O)c2ccc(Cl)cc2)CC1 | inconclusive: 70.8 µM [inhibitor, single point]
S=C(NCc1ccco1)Nc1ccc(Br)cn1 | inconclusive: 79.4 µM [inhibitor, single point]
CCC(C)Sc1cc(C(F)(F)F)c(C(=O)Nc2ccc(Cl)cc2)cn1 (stereo unspecified) | inactive
CCN(CC)C1CC(=O)N(c2cccc(Cl)c2)C1=O (stereo unspecified) | inconclusive: 79.4 µM [inhibitor, single point]
CCOc1cc(C(=O)Nc2ccc(S(=O)(=O)Nc3cc(OC)nc(OC)n3)cc2)cc(OCC)c1OCC | inactive
COc1ccc(Nc2nc(CC(C)=O)ns2)cc1 | inconclusive: 6.31 µM [inhibitor, full curve, poor fit]
Cc1ccc(C(=O)NC(=S)Nc2ccc(N3CCOCC3)cc2)c(C)c1 | inconclusive: 39.8 µM [inhibitor, partial curve, poor fit]
Cc1ccc(C(=O)N/C(=C/C=C/c2ccccc2)C(=O)NCc2ccco2)cc1 | inconclusive: 39.8 µM [inhibitor, partial curve]
CCCOc1ccc(NC(=O)C2CC(=O)N/C(=N/N=C(C)/C=C/c3ccc(N(C)C)cc3)S2)cc1 (stereo unspecified) | inconclusive: 70.8 µM [inhibitor, partial curve]
C=C(C)c1cccc(C(C)(C)NC(=O)Nc2cc(C)ccn2)c1 | inactive
